Reference: PubChem BioAssay AID504832 (National Center for Advancing Translational Sciences (NCATS), 2011)
Screen size: about 310,000 compounds; about 18,000 (5.8%) were called active. The shares of active, inactive and inconclusive entries below differ from those in the screen. Calls come from the whole dose curve; as a rule, active = well fitted inhibition curve with a large enough effect; inconclusive = small, poorly fitted or top-dose-only effect, or another doubt; inactive = no such curve, though single readings can be large or run the other way. No potency is given beside an inconclusive call; the fits are too rough.
Potency is the fitted concentration of half-maximal effect; tags give direction and shape of the fitted curve.

Test: Primary qHTS for delayed death inhibitors of the malarial parasite plastid, 48 hour incubation
Conditions: P. falciparum luciferase growth in erythrocytes; series mostly up to 28.7 µM
Procedure, shortened: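 Luciferase-expressing parasites in RBCs, 2% Hct / 0.1% parasitemia final; RPMI 1640 + 0.5% Albumax; 37 C, 5% CO2, one generation; luminescence read-out, lower signal = inhibition.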
With `Cc1ccc(C(c2sc3ncnn3c2O)N2CCC(C)CC2)cc1` (stereo unspecified) the Potency was inconclusive [inhibitor, single point].
With `Cc1ccc(OCC(=O)N2c3ccccc3CC2C)c([N+](=O)[O-])n1` (stereo unspecified) the Potency was “inactive”.
With `O=C(CNCc1ccccc1Cl)Nc1ccccc1N1CCCCC1` the Potency was inconclusive [inhibitor, single point].
In the case of `CCOc1ccc(C(C(=O)NC2CCCC2)N(C(=O)c2snc(C(N)=O)c2N)c2cccc(O)c2)cc1` (stereo unspecified), the Potency is reported as inconclusive [inhibitor, partial curve, poor fit].
In the case of `CN(C)CCCOc1ccc2c(c1)Sc1ccccc1CC2=O`, the Potency is reported as “inactive”.
For `O=C(CCSc1nnnn1-c1ccccc1)N1CCOCC1`, the Potency was “inactive”.
For `Cc1ccc(-c2nnc(SCC(=O)N(C)C)nc2-c2ccc(C)cc2)cc1`, the Potency was inconclusive [inhibitor, single point].
In the case of `Cc1[nH]c(=O)[nH]c(=O)c1S(=O)(=O)Nc1ccc(F)cc1Cl`, the Potency is reported as “inactive”.
For `CN1CCN(C(=O)CCN2C(=O)/C(=C\c3ccccc3F)SC2=S)CC1`, the Potency was inconclusive [inhibitor, single point].
With `COc1cc(C(=O)NCCc2ccc(S(N)(=O)=O)cc2)ccc1OCc1c(C)noc1C` the Potency was inconclusive [inhibitor, partial curve, poor fit].
In the case of `Nc1nnc(Cc2ccc(F)cc2)s1`, the Potency is reported as active: 10.4 µM.
For `C/C(=N\NC(=O)COc1ccccc1F)c1cc2ccccc2o1`, the Potency was “inactive”.
With `CN(CC(=O)Nc1cccc(F)c1)C(=O)c1ccc(N2CCCCCC2)c([N+](=O)[O-])c1` the Potency was inconclusive [inhibitor, single point].
In the case of `CC(Nc1nc(-c2cccc(Br)c2)cs1)c1nc2cc(Cl)c(N3CCCCC3)cc2n1CCOCCO` (stereo unspecified), the Potency is reported as inconclusive [inhibitor, single point].
For `O=C(COc1ccc(F)c(Cl)c1)N1CCCCCCC1`, the Potency was “inactive”.
With `COc1ccc(CN2CCN(C(=O)c3ccc(S(=O)(=O)NCc4ccco4)cc3)CC2)cc1` the Potency was inconclusive [inhibitor, partial curve, poor fit].
For `COc1ccc(N=C2S/C(=C\c3ccc(N4CCOCC4)o3)C(=O)N2CCc2c[nH]c3ccccc23)cc1`, the Potency was inconclusive [inhibitor, partial curve].
For `C/C(=N\NC(N)=S)C1(C)CCCCC1`, the Potency was inconclusive [inhibitor, single point].
For `CCN(c1ccccc1)S(=O)(=O)c1ccc(Cl)c(NC(=O)c2ccc(=O)[nH]n2)c1`, the Potency was inconclusive [inhibitor, partial curve, poor fit].
For `CC#CC(=O)N1CCCC(Cc2cccc(OC)c2)(C(=O)OCC)C1` (stereo unspecified), the Potency was inconclusive [inhibitor, single point].
In the case of `Nc1c(C(=O)NCCN2CCOCC2)c2nc3ccccc3nc2n1CCc1ccccc1`, the Potency is reported as active: 9.28 µM.
With `O=c1c2ccccc2[nH]c(=S)n1C1CCCCC1` the Potency was inconclusive [inhibitor, single point].
With `O=c1c2ccccc2sn1-c1ccccc1` the Potency was inconclusive [inhibitor, single point].
For `Oc1cccc(/C=N/n2c(C3CCCCC3)n[nH]c2=S)c1`, the Potency was “inactive”.
With `Cc1ccc(S(=O)(=O)NCC2NCCc3ccccc32)cc1` (stereo unspecified) the Potency was inconclusive [inhibitor, partial curve, poor fit].
For `CCOC(=O)c1cnc2ccc(C(=O)OC)cc2c1Nc1ccc(C(=O)O)cc1`, the Potency was inconclusive [inhibitor, single point].
With `Cc1onc(-c2c(Cl)cccc2Cl)c1C(=O)Nc1ccc2c(c1)OCCO2` the Potency was inconclusive [inhibitor, single point].
In the case of `Cc1cc(OCC(=O)NCC(O)c2ccccc2)c2c3c(c(=O)oc2c1)CCCC3` (stereo unspecified), the Potency is reported as inconclusive [inhibitor, single point].
In the case of `N=c1n(CCN2CCOCC2)c2ccccc2n1CC(=O)c1cccc([N+](=O)[O-])c1`, the Potency is reported as inconclusive [inhibitor, single point].
For `O=C(CN1CCN(S(=O)(=O)c2cc(Cl)ccc2Cl)CC1)c1ccc(O)c(O)c1`, the Potency was inconclusive [inhibitor, single point].
For `COc1ccc(C(CNC(=O)c2cc(S(=O)(=O)N3CCCC3)ccc2Cl)N2CCCC2)cc1` (stereo unspecified), the Potency was inconclusive [inhibitor, partial curve, poor fit].
In the case of `O=C(c1cccc(Cl)c1)C1CCCN(Cc2ccc(N3CCNC3=O)cc2)C1` (stereo unspecified), the Potency is reported as inconclusive [inhibitor, single point].
With `CC(CCc1ccc(O)cc1)NCCc1ccc(O)c(O)c1` (stereo unspecified) the Potency was inconclusive [inhibitor, partial curve, poor fit].
In the case of `O=C(NCC(=O)N(c1ccccc1)C(C(=O)NC1CCCCC1)c1ccncc1)c1ccco1` (stereo unspecified), the Potency is reported as “inactive”.
In the case of `COc1cccc(CC2(CO)CCN(Cc3cnc(-c4cccc(C)c4)nc3)CC2)c1`, the Potency is reported as inconclusive [inhibitor, single point].
For `COc1ccc(C2NC(=S)NC3=C2CCc2cc(OC)ccc23)cc1` (stereo unspecified), the Potency was inconclusive [inhibitor, full curve, poor fit].
For `CCOC(=O)c1c(S(=O)(=O)NCC(=O)Nc2cccc(C)c2C)c(C)n(C)c1C`, the Potency was inconclusive [inhibitor, partial curve, poor fit].
In the case of `CSc1ccc(CSCC(=O)N2CCN(S(=O)(=O)c3ccc(C)cc3C)CC2)cc1`, the Potency is reported as active: 11.7 µM.
For `Cc1cccc(N2CCN(C(=S)NCc3ccco3)CC2)c1C`, the Potency was inconclusive [inhibitor, partial curve, poor fit].
In the case of `CCCCC1CN2CCc3c([nH]c4ccccc34)C2(C)C1` (stereo unspecified), the Potency is reported as inconclusive [inhibitor, partial curve, poor fit].
With `O=C(OCn1nnc2ccccc2c1=O)c1ccc2ncsc2c1` the Potency was inconclusive [inhibitor, partial curve, poor fit].
For `CCOc1ccc(NC(=O)CN2CCC(NC(=O)C3CCCCC3)CC2)cc1`, the Potency was inconclusive [inhibitor, partial curve, poor fit].
For `COc1cccc(CNc2ccc(S(N)(=O)=O)cc2)c1OC`, the Potency was inconclusive [inhibitor, partial curve, poor fit].
For `COCCCNc1nc2c(c(=O)n(Cc3ccc(Cl)cc3)c(=O)n2C)n1C`, the Potency was inconclusive [inhibitor, partial curve, poor fit].
In the case of `COc1ccc(CNc2nc3ccc(C)cc3s2)c(OC)c1OC`, the Potency is reported as inconclusive [inhibitor, single point].
In the case of `Cc1ccc2nc(-c3ccc(SCC(=O)O)nc3)[nH]c2c1`, the Potency is reported as “inactive”.
For `COc1ccccc1CN1C[C@@H]2C[C@@H](c3cccc(C)c3)N3CCC[C@@]23C1=O`, the Potency was inconclusive [inhibitor, partial curve].
For `CCOc1ccc(NC(=O)CN2CCN(CC(=O)Nc3ccc(C(=O)OC)cc3)CC2)cc1`, the Potency was inconclusive [inhibitor, partial curve].
With `CCCCn1c(NCc2ccc(N(C)C)cc2)nc2ccccc21` the Potency was inconclusive [inhibitor, full curve, poor fit].
With `CCN(CC(=O)Nc1c(F)cccc1F)C(=O)C1CCC1` the Potency was “inactive”.
In the case of `CSc1cccc(NC(=O)CCNS(=O)(=O)c2ccc3[nH]c(=O)oc3c2)c1`, the Potency is reported as “inactive”.
With `COCC1CCN(Cc2cn(Cc3ccccc3)nc2-c2cc3ccccc3o2)CC1` the Potency was inconclusive [inhibitor, single point].
In the case of `Cc1ccc(C2(C)NC(=O)N(CC(=O)NC(=O)NC(C)C)C2=O)cc1` (stereo unspecified), the Potency is reported as “inactive”.
In the case of `COC(=O)c1ccc2c(c1)C(C)(C)C(/C=C/c1ccccc1O)=[N+]2C`, the Potency is reported as inconclusive [inhibitor, full curve, poor fit].
With `O=C(NCCCn1ccnc1)c1cc(Cl)cc(Cl)c1` the Potency was “inactive”.
With `CCOC(=O)NNC(=O)CCn1c2c(c3ccccc31)CCCC2` the Potency was inconclusive [inhibitor, single point].
For `Cn1c(=O)n(CC(=O)N2CCC3(CC2)OCCO3)c(=O)c2ccccc21`, the Potency was “inactive”.
With `COc1ccc(/C=C/c2nc(S(=O)(=O)c3ccccc3)c(N(C)C)o2)cc1OC` the Potency was inconclusive [inhibitor, single point].
For `CC(C)S(=O)(=O)c1csc(NC(=O)Nc2cc(Cl)ccc2Cl)c1Cl`, the Potency was inconclusive [inhibitor, single point].
For `Cc1ccc(S(=O)(=O)N2CCN(C(=O)CCN3C(=O)c4ccccc4C3=O)CC2)cc1C`, the Potency was “inactive”.
In the case of `Cc1nc(-n2[nH]c3c(c2=O)CCCC3)[nH]c(=O)c1Cc1ccccc1`, the Potency is reported as inconclusive [inhibitor, full curve, poor fit].
In the case of `CCOC(=O)c1ccc(-n2[nH]c(-c3ccccc3)cc2=O)cc1`, the Potency is reported as inconclusive [inhibitor, partial curve].
With `CCOc1cc(N2CCOCC2)c(OCC)cc1NC(=O)CN1C(=O)NC2(CCCCC2C)C1=O` (stereo unspecified) the Potency was inconclusive [inhibitor, single point].
For `CCOC(=O)C(C)c1c(C(=O)c2ccc(C)nc2)c2ccccc2n1C` (stereo unspecified), the Potency was active: 3.7 µM.
With `COc1cccc(/C=N/Nc2nc3ccccc3[nH]2)c1OC` the Potency was inconclusive [inhibitor, partial curve, poor fit].
With `O=C(NC1(C(F)(F)F)C(=O)Nc2c1c(=O)[nH]c(=O)n2Cc1ccco1)C1CC1` (stereo unspecified) the Potency was “inactive”.
